Laboratory results taken from paper PMC4336329 (PLoS ONE, 2015).
About 14,000 (4.5%) of roughly 310,000 compounds showed an effect of 50% or more. Effects have a minus sign here. The list shows a part of the results.

molecular target: human ether-à-go-go-related gene (hERG) potassium channel (human, UniProt Q12809); test: primary screen, population patch clamp on CHO cells stably expressing hERG
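Note: peak tail current of the secondary pulse compared with the same well before compound.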

Chain of human ether-à-go-go-related gene (hERG) potassium channel (Q12809 whole entry, looked up): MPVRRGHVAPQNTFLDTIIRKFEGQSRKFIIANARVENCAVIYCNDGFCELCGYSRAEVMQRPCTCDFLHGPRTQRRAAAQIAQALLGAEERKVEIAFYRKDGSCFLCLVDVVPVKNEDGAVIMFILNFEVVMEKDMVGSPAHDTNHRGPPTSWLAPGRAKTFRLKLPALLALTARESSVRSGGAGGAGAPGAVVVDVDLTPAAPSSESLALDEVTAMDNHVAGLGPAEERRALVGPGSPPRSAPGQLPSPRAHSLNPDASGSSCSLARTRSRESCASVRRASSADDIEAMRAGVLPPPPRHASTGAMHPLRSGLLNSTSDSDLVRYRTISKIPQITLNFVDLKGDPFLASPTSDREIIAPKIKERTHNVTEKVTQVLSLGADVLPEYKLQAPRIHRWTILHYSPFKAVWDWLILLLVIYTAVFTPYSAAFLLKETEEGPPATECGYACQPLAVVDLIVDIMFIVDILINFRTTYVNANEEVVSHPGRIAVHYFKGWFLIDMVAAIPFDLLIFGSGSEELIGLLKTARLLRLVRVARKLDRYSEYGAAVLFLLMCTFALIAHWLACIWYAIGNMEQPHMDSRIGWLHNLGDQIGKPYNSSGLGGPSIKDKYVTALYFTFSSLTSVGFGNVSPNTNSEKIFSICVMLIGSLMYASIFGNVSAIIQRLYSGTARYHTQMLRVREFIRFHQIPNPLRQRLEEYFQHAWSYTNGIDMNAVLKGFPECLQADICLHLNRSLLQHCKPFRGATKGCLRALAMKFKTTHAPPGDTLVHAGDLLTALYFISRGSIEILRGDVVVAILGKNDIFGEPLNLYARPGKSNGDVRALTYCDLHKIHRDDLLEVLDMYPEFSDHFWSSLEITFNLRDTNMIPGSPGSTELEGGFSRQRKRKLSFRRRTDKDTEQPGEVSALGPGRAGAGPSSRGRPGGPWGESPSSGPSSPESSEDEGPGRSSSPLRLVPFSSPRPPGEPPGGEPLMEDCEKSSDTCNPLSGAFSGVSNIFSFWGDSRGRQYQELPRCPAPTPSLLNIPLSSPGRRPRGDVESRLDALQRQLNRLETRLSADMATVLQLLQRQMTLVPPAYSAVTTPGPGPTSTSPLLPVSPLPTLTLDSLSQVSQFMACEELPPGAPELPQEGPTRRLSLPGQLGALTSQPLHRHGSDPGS

In order of rising “hERG current change (%, negative = inhibition) at 10uM” value:
1. CCN(CC)CCNC(=O)c1cc2c(s1)-c1ccccc1SC2  -77.8%
2. CCOC(=O)N1CCN(c2c(N3CCN(c4ccc(F)cc4)CC3)c(=O)c2=O)CC1  -73.4%
3. CCOC(=O)C1(CCOC)CCN(C(C)CCc2ccc(OC)cc2)CC1 (stereo not shown)  -71.1%
4. CCN(CC)CCn1c2c(c(SCC(=O)Nc3cccc4ccccc34)nc1=O)CCC2  -62.7%
5. O=C(/C=C/c1ccc2ccccc2n1)N1CCN(c2ccccc2)CC1  -52.1%
6. O=C(NCCCCC(NC(=O)c1ccc([N+](=O)[O-])cc1)C(=O)O)c1ccc([N+](=O)[O-])cc1 (stereo not shown)  -44.7%
7. CCCCN(C)Cc1c(C)[nH]c2c(Cl)cccc2c1=O  -38.7%
8. Cc1nc(-c2ccc(C(F)(F)F)cc2)sc1C(=O)NN  -34.7%
9. COc1ccc(C(=O)Nc2nc(CC(=O)NCc3ccc(F)cc3)cs2)cc1  -34.2%
10. CCC(=O)c1ccc(OCC(=O)N2CCc3cc(OC)c(OC)cc3C2)cc1  -33.2%
11. CSc1ccc(CN(C)C(C)C(=O)NCc2ccccc2)cc1 (stereo not shown)  -32.8%
12. Cc1ccc(C(=O)N(Cc2sccc2C)C2CCS(=O)(=O)C2)cc1 (stereo not shown)  -28.2%
13. CCCCCOc1ccc(C(=O)OC(C)C(=O)NCc2ccco2)cc1 (stereo not shown)  -24.8%
14. O=C(N/N=C\C=C\c1ccc2c(c1)OCO2)c1cccnc1  -24.2%
15. Cc1ccc2oc(=O)c3cnn(CC(=O)N4CCN(c5ccccc5)CC4)c3c2c1  -20.3%
16. CCOC(=O)c1cnc(SC2CC(=O)N(c3ccc(C)cc3)C2=O)nc1N (stereo not shown)  -19.4%
17. CN(Cc1nc2ccccc2c(=O)[nH]1)C(=O)c1cccc(S(=O)(=O)N2CCCC2)c1  -18%
18. CCOC(=O)CN(Cc1ccc(OC)c(OC)c1)S(=O)(=O)c1ccc(OC)cc1  -13.4%
19. COc1cccc(CN(C(=O)COc2ccc(C)cc2)C2CCS(=O)(=O)C2)c1 (stereo not shown)  -13%
20. CCOc1ccc(C(=O)N(Cc2ccc(N(C)C)cc2)C2CCS(=O)(=O)C2)cc1 (stereo not shown)  -11.3%
21. CSc1cccc(NC(=O)CN(C)S(=O)(=O)c2ccc(F)cc2)c1  -11.1%
22. COC(=O)[C@H](Cc1ccccc1)NC(=O)N1CCN(c2ccccc2)CC1  -10.8%
23. Cc1cc2nc(CCN(C(=S)NCC(C)C)C3CCCC3)[nH]c2cc1C  -10.1%
24. O=C(NNC(=O)c1ccc(-n2cncn2)c([N+](=O)[O-])c1)c1ccc(Cl)cc1  -9.94%
25. COc1ccc(/C(N)=N/OC(=O)c2cccc([N+](=O)[O-])c2C)cc1OC  -9.25%
26. O=C1NC2(CCCCCC2)C(=O)N1Cc1c(F)cccc1Cl  -9.11%
27. COc1ccc(-c2nnn(CC(=O)N(CCCO)C(C(=O)NC3CCCC3)c3ccc(F)cc3)n2)cc1 (stereo not shown)  -8.29%
28. C=CCNC(=S)NNC(=O)c1ccc(OCC(C)C)cc1  -7.83%
29. COc1ccc2c(c1)C1NC(=S)NC(C)(O2)C1C(=O)Nc1ccc(Cl)cc1 (stereo not shown)  -5.47%
30. CC(=O)NC(c1ccc(F)cc1)c1cccnc1 (stereo not shown)  -5.47%
31. O=C(CNC(=O)c1ccco1)OCc1c(F)cccc1Cl  -5.42%
32. CC1(C)Cc2c(c(N3CCCC3)[nH]c(=S)c2C#N)CO1  -5.11%
33. CC1CCN(c2nc3c(c(=O)n(C)c(=O)n3C)n2CCSc2ncccn2)CC1  -3.05%
34. COC(=O)Cn1nnc(-c2cccc(OC)c2)n1  -2.98%
35. O=C(Nc1nnc(SCc2cccc3ccccc23)s1)C1COc2ccccc2O1 (stereo not shown)  -2.81%
36. COc1ccccc1-c1c(C)oc2c(CN3CCOCC3)c(O)ccc2c1=O  -2.69%
37. C=CCc1ccc(O)c(-c2ccc(O)c(CC=C)c2)c1  -0.299%
38. Cc1cc2nc(C)n3c4ccccc4nc3n2n1  -0.0826%
39. CN(C)/C=C1\C(=O)N(c2ccc(Cl)cc2)CS1(=O)=O  0.27%
40. CNc1ccccc1-n1ccc(-c2ccccc2)n1  1.14%
41. CCOC(=O)c1cccc(NC(=O)C(NS(=O)(=O)c2ccc3c(c2)CCN3C(C)=O)C(C)C)c1 (stereo not shown)  1.15%
42. CCOc1ccc(S(=O)(=O)N2CCN(C(=O)c3ccccc3Cc3ccccc3)CC2)cc1  3.09%
43. O=C(c1ccc(OC2CCN(Cc3ccccc3O)CC2)cc1)N1CCCCC1  3.29%
44. O=C(N/N=C\CCc1ccccc1)c1ccco1  3.8%
45. COc1cccc(OC)c1NC(=O)Cn1nc(-c2ccc3c(c2)OCCO3)ccc1=O  3.82%
46. COc1cc(NC(=O)c2cccs2)c(C(=O)OCC(=O)NC(=O)NC(C)(C)C)cc1OC  3.92%
47. CCCCN1C(=O)C(=O)N(CC(=O)N2CCc3ccccc32)C1=O  5.05%
48. COc1ccc(-c2csc(NC(=O)CSc3nc(SC)ns3)n2)cc1  5.06%
49. COc1ccc(CC(=O)Nc2nc3n(n2)C(c2ccccc2)CC(=O)N3)cc1OC (stereo not shown)  5.18%
50. CCOc1cc(/C=N\NC(=O)c2c(C)nc3ccccn23)ccc1O  5.46%
51. COCCNC(=O)C(c1ccc(OC)cc1)N(CCOC)C(=O)CCC(=O)Nc1nccs1 (stereo not shown)  5.47%
52. CCOc1ccc2c(c1)C(c1ccccc1)=NNC(c1ccccc1)=N2  6.08%
53. c1coc(C2Nc3ccccc3C3OCCC23)c1 (stereo not shown)  6.63%
54. Cn1nc(C(=O)OCc2ccc(Br)cc2F)c2ccccc2c1=O  6.86%
55. CC(C)CC(=O)Nc1nc2ccc(S(=O)(=O)N3CCOCC3)cc2s1  7.14%
56. Cc1ccc([N+](=O)[O-])cc1NC(=O)c1ccc(CSc2ccccc2)cc1  7.14%
57. Cc1ccc(NC(=O)CC(=O)Nc2ccc(C)cc2C)c(C)c1  7.17%
58. O=c1[nH]c2ccc(S(=O)(=O)N3CCCCC3)cc2[nH]c1=O  7.24%
59. O=C(COC(=O)CSCC(=O)N1CCCCC1)NCc1ccc(F)cc1  7.39%
60. CCOC(=O)c1ccc(NC(=S)NN2CCOCC2)cc1  7.59%
61. CC(C)(C)OC(=O)N1CCC(CC2CC(c3ccncc3)=NO2)(C(=O)O)CC1 (stereo not shown)  8.83%
62. CCOc1ccccc1NC(=O)CCNS(=O)(=O)c1ccc2[nH]c(=O)oc2c1  9.11%
63. Cc1ccc(CCNC(=O)C2CCN(S(=O)(=O)c3ccc4c(c3)oc(=O)n4C)CC2)cc1  9.19%
64. CCS(=O)(=O)c1ccc2c(c1)N(S(=O)(=O)c1ccc(C)cc1)CC(C(=O)O)O2 (stereo not shown)  9.27%
65. CC1Nc2ncnc(N3CCOCC3)c2N(Cc2ccccc2)C1=O.O=C(O)C(F)(F)F (stereo not shown)  10.1%
66. CCOc1ccc(C(=O)Nc2cnn(Cc3ccc(Cl)c(Cl)c3)c2)cc1  10.3%
67. CCOc1cc(C(=O)O)cc(Cl)c1OCC#N  10.5%
68. O=C(NCCCc1ccccc1)c1cnc2n(c1=O)CCS2  10.7%
69. O=C(c1nnc(Cc2ccc(Cl)cc2)o1)N1CCOCC1  10.7%
70. Cc1c(C(=O)/C=C/c2cccs2)oc2ccc(F)cc12  11.7%
71. CC(Oc1cc2oc(=O)c3c(c2cc1Cl)CCC3)C(=O)NCCCN1CCOCC1 (stereo not shown)  12%
72. CC(=O)c1c(C)n(-c2ccc(C)cc2C)c2ccc(O)cc12  12.9%
73. CCC(=O)Nc1nc(=S)ss1  13.5%
74. CC(SCC(=O)Nc1ccc(F)cc1)c1nc2ccccc2c(=O)[nH]1 (stereo not shown)  14.8%
75. O=C(O/N=C(\c1ccccc1)c1ccccn1)c1ccc(Cl)c(Cl)c1  15.3%
76. Cc1ccc(NC(=O)n2ncc3c(C)cccc32)c(C)c1  16.6%
77. COC(=O)c1c(C)oc(C)c1S(=O)(=O)NC(c1ccccc1)c1ccccc1  17.2%
78. O=C(NC(c1ccccc1)c1c(O)ccc2ccccc12)c1ccccc1Cl (stereo not shown)  17.9%
79. COc1cccc2cc(C(=O)NCc3ccccc3Br)c(=O)oc12  19%
80. Cc1[nH]nc(SCC(=O)N2CCCCC2)c1[N+](=O)[O-]  19.8%
81. CCOC(=O)Cc1c(Cl)c2ccccc2[nH]c1=O  20%
82. Nc1ccc(-c2nc3c(Cl)cc(N)cc3[nH]2)cc1  20.7%
83. CC(C)c1ccc(Nc2nnc(SCC(=O)c3nnc(-c4ccccc4)o3)s2)cc1  22.2%
84. CC1CN(C(=O)c2cc([N+](=O)[O-])cc([N+](=O)[O-])c2)CC(C)O1 (stereo not shown)  25.5%
85. CC(C)CC(=O)Nc1sc2c(c1C(=O)O)CCCCC2  25.8%
86. CCN(CC)CCOC(=O)c1ccc(NC(=O)CNC(=O)c2ccccc2)cc1.Cl  26.9%
87. CCNC(=O)COC(=O)/C=C/c1cccs1  31.7%
88. O=C(COC(=O)/C=C/c1ccc2c(c1)OCO2)Nc1ccccc1  41.3%
